Reference: the supplement of paper PMC10320760
The data scatter; read single values as rough.

B1: Ydj1; a variant is named by its letters at X, in order (parent)
chain: MVKETKFYDILGVPVTATDVEIKKAYRKCALKYHPDKNPSEEAAEKFKEASAAYEILSDPEKRDIYDQFGEDGLSGAGGAGGFPGGGFGFGDDIFSQFFGAGGAQRPRGPQRGKDIKHEISASLEELYKGRTAKLALNKQILCKECEGRGGKKGAVKKCTSCNGQGIKFVTRQMGPMIQRFQTECDVCHGTGDIIDPKDRCKSCNGKKVENERKILEVHVEPGMKDGQRIVFKGEADQAPDVIPGDVVFIVSERPHKSFKRDGDDLVYEAEIDLLTAIAGGEFALEHVSGDWLKVGIVPGEVIAPGMRKVIEGKGMPIPKYGGYGNLIIKFTIKFPENHFTSEENLKKLEEILPPRIVPAIPKKATVDECVLADFDPAKYNRTRASRGGANYDSDEEEQGGEGVQCXXX

Variants of: B1
Assay: enrichment factor, frequency at 37 °C / frequency at 25 °C (thermotolerance selection) (ratio); higher = more growth at 37 °C, higher likelihood of farnesylation
Conditions: with Saccharomyces cerevisiae ydj1Δ (yWS304); selective temperature 37 °C; reference temperature 25 °C

Variant | enrichment factor
LYF | 1.95
LYC | 0.988
LYA | 1.56
LYI | 1.89
LYE | 2.3
LYK | 0.153
LYN | 2.55
LYD | 0.645
LYP | 0.124
LYL | 1.3
LYH | 1.41
LYM | 2.78
LYG | 1.56
IWW | 1.13
IWV | 0.772
IWT | 0.796
IWY | 0.989
RWY | 1.24
RWV | 1.41
RWT | 1.86
RWW | 0.995
QWY | 1.9
QWW | 1.02
QWT | 4.68

Variant | enrichment factor
QWV | 1.96
CWV | 0.683
CWT | 0.463
CWY | 0.237
CWW | 0.664
KWY | 1.05
KWT | 1.59
KWV | 1.12
KWW | 0.879
KYM | 0.624
KYA | 1.31
KYC | 0.734
KYF | 1.28
KYL | 0.357
KYG | 1.34
KYK | 0.114
KYD | 0.467
KYP | 0.19
KYI | 1.01
KYH | 0.613
KYN | 1.3
KYE | 2.23
SYN | 1.86
SYD | 0.288

Variant | enrichment factor
SYL | 0.934
SYE | 1.2
SYP | 0.157
SYM | 1.3
SYC | 1.1
SYG | 1.79
SYK | 0.139
SYH | 1.17
SYF | 1.82
SYA | 1.95
SYI | 1.45
PWT | 1.2
PWW | 1.06
PWY | 1.35
PWV | 1.01
HYH | 1.16
HYL | 1.01
HYD | 0.441
HYN | 2.22
HYM | 1.74
HYA | 3.19
HYP | 0.537
HYC | 2.53
HYE | 1.71

Variant | enrichment factor
HYG | 1.83
HYI | 1.67
HYK | 0.256
HYF | 1.84
DWY | 0.311
DWV | 0.689
DWW | 0.395
RYG | 1.07
RYK | 0.0965
RYH | 1.47
RYL | 0.414
RYA | 2.37
RYP | 0.162
RYE | 1.81
RYM | 0.579
RYF | 2.28
RYI | 1.06
RYC | 0.695
RYD | 0.539
RYN | 1.45
EWV | 0.687
EWW | 1.33
EWY | 1.56
PYA | 1.22

Variant | enrichment factor
PYP | 0.215
PYM | 0.573
PYI | 1.32
PYF | 1.55
PYC | 0.707
PYN | 1.86
PYH | 0.962
PYE | 1.57
PYK | 0.155
PYD | 0.25
PYL | 0.991
PYG | 1.75
WWY | 0.657
WWT | 1.42
WWV | 1.16
WWW | 1.75
TYI | 1.73
TYL | 1.39
TYH | 1.96
TYC | 1.56
TYG | 1.62
TYM | 1.38
TYP | 0.12
TYN | 1.96

Variant | enrichment factor
TYE | 1.99
TYK | 0.172
TYD | 0.544
TYA | 4.49
TYF | 1.69
GWW | 0.616
GWY | 0.368
GWV | 1.84
YYG | 1.69
YYH | 0.574
YYN | 1.49
YYF | 1.5
YYI | 1.84
YYC | 2.16
YYA | 4.39
YYE | 0.483
YYM | 1.79
YYK | 0.122
YYD | 0.432
YYL | 1.36
MYL | 1.5
MYH | 1.02
MYM | 1.99
MYI | 1.48

Variant | enrichment factor
MYC | 0.984
MYF | 1.39
MYA | 1.28
MYN | 2.17
MYP | 0.17
MYD | 0.224
MYG | 1.44
MYE | 1.16
MYK | 0.2
AYG | 1.78
AYN | 1.95
AYE | 1.75
AYA | 1.13
AYF | 1.71
AYP | 0.125
AYD | 0.953
AYH | 2.01
AYI | 1.73
AYK | 0.243
AYM | 2.04
AYL | 1.47
AYC | 1.37
QYG | 1.98
QYF | 1.7

Variant | enrichment factor
QYN | 2.36
QYL | 1.36
QYM | 1.09
QYP | 0.212
QYD | 0.54
QYE | 2.07
QYC | 2.43
QYH | 1.91
QYI | 1.98
QYK | 0.296
QYA | 2.8
MWT | 1.23
MWY | 1.19
MWW | 1.51
MWV | 1.19
VYE | 1.92
VYH | 3.38
VYG | 2.25
VYI | 1.48
VYA | 1.45
VYM | 1.39
VYD | 1.55
VYL | 2.27
VYK | 0.67

Variant | enrichment factor
VYN | 1.75
VYP | 0.0893
VYC | 2.55
VYF | 1.16
EYD | 0.496
EYH | 1.56
EYM | 1.1
EYK | 0.228
EYN | 1.62
EYE | 1.53
EYP | 0.15
EYF | 1.25
EYG | 1.75
EYL | 1.3
EYC | 1.58
EYI | 1.45
EYA | 1.95
NWV | 1.2
NWT | 2.76
NWY | 0.849
NWW | 0.842
FWY | 0.961
FWV | 1.88
FWW | 1.33

Variant | enrichment factor
IYN | 2.06
IYE | 1.8
IYD | 0.651
IYG | 1.81
IYA | 2.95
IYC | 0.749
IYF | 2.57
IYK | 0.0745
IYH | 1.67
IYL | 1.7
IYI | 1.67
IYP | 0.115
TWV | 0.802
TWT | 5.07
TWW | 1.51
TWY | 1.68
CYM | 0.711
CYG | 1.16
CYH | 1.57
CYK | 0.251
CYA | 0.869
CYF | 0.307
CYN | 1.69
CYI | 0.386

Variant | enrichment factor
CYD | 0.547
CYE | 2.07
CYC | 0.502
CYL | 0.141
CYP | 0.797
LWY | 1.16
LWW | 1.12
LWV | 1.49
LWT | 0.951
AWT | 3.09
AWW | 1.43
AWV | 0.705
AWY | 1.61
FYI | 1.53
FYK | 0.188
FYE | 0.544
FYM | 0.515
FYG | 1.61
FYL | 1.07
FYH | 0.921
FYA | 2.61
FYF | 1.34
FYC | 1.21
FYN | 1.43

Variant | enrichment factor
FYP | 1.14
FYD | 0.471
VWW | 1.41
VWY | 1.45
VWV | 1.29
VWT | 1.01
DYF | 1.6
DYD | 0.159
DYG | 0.425
DYH | 0.157
DYL | 0.333
DYC | 0.753
DYE | 0.291
DYM | 1.32
DYK | 0.136
DYN | 0.29
DYP | 0.139
DYI | 0.859
DYA | 1.91
HWY | 0.825
HWT | 2.7
HWW | 0.616
HWV | 3.05
NYH | 0.949

Variant | enrichment factor
NYI | 1.43
NYA | 2.32
NYL | 0.929
NYN | 2.29
NYG | 1.74
NYF | 1.54
NYC | 0.915
NYP | 0.099
NYD | 0.108
NYM | 1.93
NYK | 0.165
NYE | 1.58
YWW | 1.16
YWV | 2.53
YWT | 2.09
YWY | 0.862
GYL | 1.15
GYN | 1.36
GYK | 0.11
GYI | 1.51
GYG | 1.16
GYD | 0.145
GYP | 0.185
GYC | 0.836

Variant | enrichment factor
GYH | 0.979
GYA | 2.29
GYF | 0.955
GYM | 1.77
GYE | 0.443
WYD | 1.16
WYH | 1.9
WYE | 2
WYC | 0.802
WYI | 1.59
WYF | 0.663
WYN | 1.41
WYK | 0.252
WYP | 1.09
WYG | 1.94
WYM | 1.01
WYL | 1.37
WYA | 2.09
SWT | 2.29
SWY | 1.3
SWV | 2.27
SWW | 1.02
